# According to PubChem BioAssay AID651820 (National Center for Advancing Translational Sciences (NCATS), 2012):
# “And” between values parts separate entries of the source, which are not always exact repeats. Equal entries are not always repeated. Screen size: about 340,000 compounds; about 12,000 (3.5%) were called active. Inconclusive means that the source gave no clear call. Such entries were picked first, then a sample of the others. The call rests on the fitted dose curve; in most records, active means well fitted inhibition curve with a large enough effect; inconclusive means small, poorly fitted or top-dose-only effect, or another doubt; inactive means no such curve, though single readings can be large or run the other way. Potencies beside an inconclusive call are fits to weak or partial responses and may not hold up.
# Assay: qHTS Assay for Inhibitors of Hepatitis C Virus (HCV)
# Conditions: Huh7.5.1 HCVcc-Cre (HCVcc is cell-culture hepatitis C virus) infection, luciferase reporter, 44 h; activity change, negative = inhibition: at 41.8 µM (top of the series) unless noted
# Method in brief: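 Cells seeded at 1,000/well and cultured 4 h, then compounds added followed by HCVcc-Cre virus (~0.5 moi). After 44 h further culture, luciferase substrate was added, plates held 15 min at room temperature, and luminescence read for 15 sec.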
# On the % scale 0 is the no-effect control and ±100 the full control effect; potency means the concentration at half of the fitted maximal effect; tags describe the fitted curve by direction and shape.
SMILES,"activity change, negative = inhibition",Potency
O=c1[nH]c2cc3c(cc2cc1CN(Cc1nnnn1CC1CCCO1)C1CCCC1)OCO3 (stereo unspecified),inactive: 12.6%,–
N#CCCn1cc(/C=C2\NC(=S)N(c3ccccc3)C2=O)c(-c2ccc(F)cc2)n1,inactive: -8.47%,–
COc1ccc(-c2c(C#N)c(N)nc3c2CCc2ccccc2-3)cc1OC,–,active: 11.2 µM
CN(Cc1cccc(F)c1)C(=O)CN1CCN(S(=O)(=O)c2ccc3c(c2)OCCCO3)CC1,–,"inconclusive: 31.6 µM [inhibitor, single point]"
CCOc1ccc(-c2nnn(CC(=O)NCc3ccco3)n2)cc1OCC,–,"inconclusive: 10 µM [inhibitor, single point]"
CN(C)CCCN(C(=O)c1ccco1)c1nc2cc3c(cc2s1)OCO3,–,"inconclusive: 15.8 µM [inhibitor, single point]"
CCN(CC)C(=O)CSc1nc2cc3c(cc2c(=O)n1CCCCCC(=O)NCc1ccc(OC)cc1)OCO3,–,"inconclusive: 6.31 µM [inhibitor, partial curve]"
CCc1nn(C(C)C(=O)NCc2cccc(Cl)c2)c(=O)c2cc3occc3n12 (stereo unspecified),–,active: 8.91 µM
O=C(Cn1cnc2ccccc21)Nc1cccc(S(=O)(=O)N2CCCC2)c1,–,"inconclusive: 5.62 µM [inhibitor, full curve]"
CCOc1ccc(CNc2ccc(N3CCN(Cc4ccccc4)CC3)cc2)cc1,–,active: 10 µM
CCC(CO)Oc1cc(NC(=O)c2ccc(Cl)cc2)c2ncn(C(C)C)c2c1 (stereo unspecified),–,"inconclusive: 1.41 µM [inhibitor, full curve, poor fit]"
O=C1/C(=C\c2ccncc2)CCc2ccccc21,–,"inconclusive: 31.6 µM [inhibitor, single point]"
CCCCC1CCC(C(=O)N(CC(C)C)c2c(N)n(Cc3ccccc3)c(=O)[nH]c2=O)CC1 (stereo unspecified),inactive: 9.36%,–
COc1cccc(CN2CC(C(=O)N3CCN(c4ccc(Cl)cc4)CC3)CCC2=O)c1 (stereo unspecified),–,"inconclusive: 14.1 µM [inhibitor, single point]"
COc1ccc(C(CNC(=O)C(C)(C)Oc2ccc(Cl)cc2)N2CCCCC2)cc1 (stereo unspecified),inactive: 1.47%,–
CN(CCc1cnn(C)c1)Cc1cn(C)nc1-c1ccc2c(c1)OCCO2,inactive: 4.75%,–
CN(C)c1ccc(P(=O)(OC2CCCCC2)C(Nc2ccccc2)c2cccnc2)cc1 (stereo unspecified),inactive: -12.8%,–
O=C(CN1CCCC1)N/N=C/c1c(O)ccc2ccccc12,–,active: 7.94 µM
Cc1oc(=O)c(NC(=O)c2cccc(Cl)c2)cc1C(=O)c1ccccc1,–,"inconclusive: 31.6 µM [inhibitor, single point]"
CC1CCN(S(=O)(=O)c2cccc(C(=O)Nc3ccccc3)c2)CC1,–,"inconclusive: 31.6 µM [inhibitor, single point]"
C=CCc1ccc(OC(=O)NC2CCCCC2)c(OC)c1,inactive: 0.0431%,–
COc1ccc(/C=C/C(=O)NCC(=O)N/N=C/c2ccc(OC)cc2)cc1,inconclusive: -48.8% [inhibitor],–
O=C(CC(c1ccco1)S(=O)(=O)c1ccccc1)c1ccc(F)cc1 (stereo unspecified),–,"inconclusive: 20 µM [inhibitor, single point]"
O=[N+]([O-])c1ccccc1/C=N/N1CCN(c2ccncc2S(=O)(=O)N2CCCCC2)CC1,–,"inconclusive: 31.6 µM [inhibitor, single point]"

SMILES,"activity change, negative = inhibition",Potency
Nn1c(SCC(=O)Nc2ccc3c(c2)CCC3)nnc1C1CC1,–,"inconclusive: 5.62 µM [inhibitor, single point]"
COCC1CCN(C(=O)c2cc(COc3ccc(-n4cncn4)cc3)on2)C1 (stereo unspecified),inactive: 1.2%,–
Cc1nc(Nc2ccc(S(N)(=O)=O)cc2)sc1-c1ccccc1,–,"inconclusive: 25.1 µM [inhibitor, single point]"
CCOC(=O)c1nc2nc(-c3cccs3)cc(C(F)(F)F)n2n1,–,"inconclusive: 1.26 µM [inhibitor, partial curve]"
O=C(NCc1ccccc1)c1cnsn1,inactive: 14.9%,–
O=C(NCc1ccccc1)C1CCCN(c2ncnc3c2nc2n3CCCCC2)C1 (stereo unspecified),–,"inconclusive: 10 µM [inhibitor, partial curve]"
O=C(CNc1ccc(F)cc1)N/N=C/c1c(O)ccc2ccccc12,–,"inconclusive: 11.2 µM [inhibitor, partial curve]"
Cc1cc(C)c(S(=O)(=O)N2CCCC(C(=O)NCc3ccncc3)C2)c(C)c1 (stereo unspecified),–,"inconclusive: 10 µM [inhibitor, partial curve]"
CC(C)(C)N/N=C/c1c(O)n(-c2ccc(Cl)cn2)c(=O)c2ccccc12,–,"inconclusive: 31.6 µM [inhibitor, single point]"
O=C(c1ccc(Cl)cc1)N1CCN(c2ccc([N+](=O)[O-])c(NCc3cccnc3)c2)CC1,–,"inconclusive: 31.6 µM [inhibitor, single point]"
CC[n+]1c(/C=C/N(C)c2ccccc2)oc2ccccc21,–,"inconclusive: 3.55 µM [inhibitor, full curve]"
Cc1cc(C)n(Cc2ccc(NC(=O)c3ccc(COc4ccccc4Br)cc3)cc2)n1,–,active: 3.98 µM
CC(Cl)C(=O)NN=C(c1ccccc1)c1ccccc1 (stereo unspecified),inactive: -14.6%,–
O=C(Nc1cccc(NC(=O)c2cccc([N+](=O)[O-])c2)n1)c1cccc([N+](=O)[O-])c1,–,"inconclusive: 1.58 µM [inhibitor, full curve]"
COC(=O)c1cc(=O)n2c(sc3ccccc32)c1C#N,inactive: -0.418%,–
COC(=O)C(C)Sc1nc2c(c(=O)[nH]c(=O)n2C)n1CCC(C)C (stereo unspecified),–,"inconclusive: 31.6 µM [inhibitor, single point]"
COc1ccc2nc(NC(=O)C3CC(=O)N(c4ccc5c(c4)OCCO5)C3)sc2c1 (stereo unspecified),inactive: 13.2%,–
COc1ccc(N2CCN(C(=O)CC3NC4CCCCC4NC3=O)CC2)cc1 (stereo unspecified),inactive: -0.915%,–
COc1ccc([N+](=O)[O-])cc1NC(=O)Nc1cccc(Cl)c1,–,"inconclusive: 31.6 µM [inhibitor, single point]"
Cc1[nH]c2ccccc2c1C(=O)CCl,–,"inconclusive: 31.6 µM [inhibitor, single point]"
O=C(c1cc2nc(-c3ccco3)cc(C(F)(F)F)n2n1)N1CCN(c2ccccn2)CC1,–,"inconclusive: 3.55 µM [inhibitor, partial curve] and inconclusive: 15.8 µM [inhibitor, single point]"
Cc1cc(-n2nnc3ccccc32)nc2ccccc12,–,"inconclusive: 14.1 µM [inhibitor, single point]"
O=C(COc1cc2oc(=O)c3c(c2cc1Cl)CCC3)Nc1cccnc1,inactive: 20.5%,–
CCn1ncc(Br)c1C(=O)Nc1ncc(C)s1,inactive: -17.5%,–

SMILES,"activity change, negative = inhibition",Potency
O=c1[nH]c(CN2CCN(c3ccc([N+](=O)[O-])cc3)CC2)nc2ccsc12,–,"inconclusive: 31.6 µM [inhibitor, single point]"
Cc1cccc(N(C(=O)c2snc(C(N)=O)c2N)C(C(=O)NC2CCCC2)c2ccc(C)o2)c1 (stereo unspecified),–,"inconclusive: 11.2 µM [inhibitor, partial curve]"
O=C1c2ccccc2NC(c2cccc([N+](=O)[O-])c2)N1CCc1ccccc1 (stereo unspecified),inactive: -7.63%,–
Nc1ccc2nc(-c3cc(Cl)c(N)c(Cl)c3)[nH]c2c1,–,active: 11.2 µM
Cc1cccc(NC(=O)c2cnc3sccn3c2=O)c1C,inactive: 0.504%,–
CCCCOc1ccc(C(=O)NCc2ccncc2)cc1,–,"inconclusive: 12.6 µM [inhibitor, single point]"
COc1ccc(O)c(C(=O)/C=C/c2cc3ccccc3o2)c1,–,"inconclusive: 31.6 µM [inhibitor, single point]"
CC1CC(C)CN(S(=O)(=O)c2ccc3c(c2)NC(=O)C(C)C(=O)N3)C1 (stereo unspecified),inactive: 11.5%,–
COc1ccccc1CNC(=O)C1CCC(CNC(=O)[C@@H]2Cc3ccccc3CN2)CC1 (stereo partly specified),–,"inconclusive: 20 µM [inhibitor, partial curve]"
CCn1cc([N+](=O)[O-])c(C(=O)Nc2nc(-c3ccc(C)cc3)c(C)s2)n1,–,"inconclusive: 6.31 µM [inhibitor, partial curve]"
CCCCOC(=O)/C(=C/C=C/c1ccccc1)NC(=O)c1ccccc1,–,"inconclusive: 31.6 µM [inhibitor, single point]"
Cc1c(-c2ccccn2)c(=O)[nH]n1-c1ccc(F)cc1,inactive: 5.92%,–
CC(=O)c1cccc(S(=O)(=O)Nc2cc(C(F)(F)F)ccc2N2CCOCC2)c1,inactive: -2.27%,–
O=C(NCc1ccccc1)c1cc[n+](CC(=O)c2cccs2)cc1,inactive: -13.3%,–
COc1ccc(-c2nc3c4ccccc4ccn3c2CN2CCCCC2)cc1,–,"inconclusive: 11.2 µM [inhibitor, single point]"
COC(=O)c1ccc(C(=O)OC)c(NC(=O)CN(C)Cc2cccc(Cl)c2Cl)c1,–,"inconclusive: 0.891 µM [inhibitor, full curve, poor fit]"
CCOC(=O)c1ccccc1NS(=O)(=O)c1ccc(C)cc1,–,"inconclusive: 14.1 µM [inhibitor, single point]"
CCOC(=O)c1ccc(-n2c(CN(CC)CC)nc3ccc([N+](=O)[O-])cc3c2=O)cc1,inactive: -26.1%,–
CSc1ccc(NC(=O)N2CC=C(n3c(=O)[nH]c4ccccc43)CC2)cc1,–,active: 10 µM
Oc1ccc2ccccc2c1/C=N/Nc1nnc(-c2ncc[nH]2)c2ccccc12,–,active: 3.16 µM
CCOC(=O)c1c(C)nc2sc3c(=O)n(-c4ccc(C(C)=O)cc4)nnc3c2c1-c1ccc(OC)cc1,–,active: 8.91 µM
Cc1c(OCC(F)(F)F)ccnc1CSc1nc2ccccc2[nH]1,–,"inconclusive: 3.16 µM [inhibitor, single point]"
O=C(CSc1nc2ccccc2c(=O)[nH]1)Nc1ccc(S(=O)(=O)N2CCCC2)cc1,–,"inconclusive: 3.98 µM [inhibitor, full curve, poor fit]"
